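1) Cells in 96-well plates. 2) Compound, 48 h, 5 concentrations. 3) Linear interpolation between surrounding doses. 4) Unreached endpoint = highest concentration. The concentration for 50% growth inhibition is given as GI50.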 Activity calls are given as the source filed them. Rule as the data show it: active = GI50 up to about 1.1 µM and inactive = higher.

This test relates to NCI-H322M. Kind of test: NCI-60 cell line screen, 48 h.
For the compound `Nc1ccc(-c2nc3ccccc3s2)cc1Br`, the GI50 was inactive: > 83.8 µM. Then `N[C@H](Cc1ccc2oc3cc(=O)c4ccccc4c-3nc2c1)C(=O)O`, with inactive: 27.4 µM; and `O=C(O)C12C3C4C1C1C2C3C41I` (stereo not drawn), with inactive: > 100 µM; and `NC(=S)N/N=C1\CCc2ccccc2C1`, with inactive: > 100 µM. To `CC(=O)[C@]1(C)[C@H](C)O[C@](C)(CO)[C@H]1O[Si](C)(C)c1ccccc1` belongs inactive: > 100 µM; to `COc1cc2nc3n(c(=O)c2cc1OC)CCCCC3`, inactive: > 100 µM; to `COC(=O)CSC1CC(=O)c2c(Cl)sc(Cl)c21` (stereo not drawn), inactive: > 100 µM.

In the case of `CC#CC#C/C=C1\C=CC2(OC=CC2O)O1` (stereo not drawn), the GI50 is inactive: > 23.3 µM. `CC1(C)C(=NNC(=S)NN)C(C)(C)C1=NNC(=S)NN`: the GI50 was inactive: > 100 µM. Consider `Cn1c(=O)c2ccccc2[n+]2c(-c3cccc([N+](=O)[O-])c3)csc12`, for which the GI50 was inactive: > 100 µM.

On to `O=C(NC(C(F)(F)F)(C(F)(F)F)P(=O)(c1ccccc1)c1ccccc1)C(C(F)(F)F)C(F)(F)F`, for which the GI50 is inactive: > 100 µM.

For `CCCCCCCCCC(=O)Oc1cccc2onc(C)c12`, the GI50 is inactive: > 100 µM. Then `CCOC(=O)Cc1nnc2n(-c3ccccc3)c(=O)c3ccccc3n12`, with inactive: > 100 µM.

With `Nc1nc2c(ncn2CCOC(c2ccccc2)P(=O)(O)O)c(=O)[nH]1` (stereo not drawn), the GI50 is inactive: > 100 µM. For the compound `O=C1/C(=C\c2cccc(Oc3ccccc3)c2)S(=O)(=O)C(c2ccccc2)N1Cc1ccccc1` (stereo not drawn), the GI50 was inactive: 66.2 µM. As to `COc1cc2c3c(c1Oc1nnnn1-c1ccccc1)-c1c(ccc4c1OCO4)C[C@H]3N(C)CC2`, the GI50 was inactive: 42.5 µM. `Cc1cc(N(CCC#N)CCC#N)ccc1/C(Sc1ccccc1)=C(\NC(=O)/C=C/c1ccccc1)C(=O)Sc1ccccc1`: the GI50 was inactive: 5.79 µM. In the case of `N#Cc1nc(C#N)n(S(=O)(=O)c2ccccc2)c1NS(=O)(=O)c1ccccc1`, the GI50 is inactive: > 100 µM. As for `NCCCNC1(c2cc3ccccc3s2)CCCCC1`, the GI50 was inactive: 8.63 µM. On to `C[N+](C)(C)CC(=O)N/N=C(\C(=O)Nc1ccc(Cl)cc1)C1C(=O)N(c2ccccc2)N=C1N` (stereo not drawn), for which the GI50 is inactive: > 100 µM. To `COC(=O)C(CCCC1(c2ccccc2)OCCO1)C(C)=O` (stereo not drawn) belongs inactive: > 100 µM; to `O/N=C1\Nc2ccccc2OCc2cc(Br)c(Br)cc2COc2ccccc2N\C1=N/O`, inactive: 11.3 µM; to `CCOc1ccccc1/N=C\c1c2ccccc2cc2ccccc12`, inactive: 26.7 µM. For `CN(C)CC(O)CNC(=O)Nc1ccccc1` (stereo not drawn), the GI50 was inactive: > 100 µM. To `CN(C)CCCn1c(Cc2ccc(Cl)cc2)nc2cc(C(F)(F)F)ccc21` belongs inactive: 16.8 µM; to `NCCOc1cccc(C2(N3CCCCC3)CCCCC2)c1`, inactive: 34.6 µM; to `O=C1c2ccccc2N2OC3(N4CCCC4)CCCC3C12c1ccccc1` (stereo not drawn), inactive: > 100 µM.

In the case of `C[Si](C)(C)/C(Br)=C\CCN1C(=O)CCC1O` (stereo not drawn), the GI50 is inactive: > 100 µM.

As for `C=C1[C@H](OCC(C)C)[C@@H](OCC(C)C)[C@@H](O)C(C)(C)/C=C/[C@H](C)C(=O)[C@@]2(O)C[C@H](C)[C@H](O)[C@@H]2[C@H]1OCC(C)C`, the GI50 is inactive: > 7.5 µM. As for `O=C(c1ccccc1)c1nc2c(Cl)ccc(Cl)c2cc1C(Br)Br`, the GI50 is active: 0.929 µM. With `COc1ccc(/N=N/C(=N/NC(=O)c2ccc(C)cc2)c2ccc(N(CCC#N)CCC#N)cc2OC)cc1`, the GI50 is inactive: > 100 µM.

`CS(=O)(=O)OCCN(CCOS(C)(=O)=O)c1ccc(/C=N/N=c2/nc[nH]c3nc[nH]c23)cc1`: the GI50 was inactive: 14.4 µM. Regarding `COC12C=CC(CC1)C(C)(C)C2OS(C)(=O)=O` (stereo not drawn), the GI50 is inactive: > 100 µM. Take `CC(=O)Nc1c(C(=N)C#N)ncn1CCO`: the GI50 is inactive: > 100 µM.

`CCOC(=O)/C(=C/c1ccc(C(=O)OC)cc1)N(CC)CC`: the GI50 is inactive: 69.2 µM.

Regarding `COc1ccc(CCNC(=O)c2ccccc2C2c3ccc(OCc4ccccc4)cc3Oc3cc(OCc4ccccc4)ccc32)cc1OC`, the GI50 is inactive: > 100 µM.

As to `CC(C)/C(Cl)=N\OC(=O)Nc1ccccc1F`, the GI50 was inactive: 20.8 µM. With `CC1(C)CN=C(Nc2ccc(Cl)cc2)S1`, the GI50 was inactive: > 100 µM. As for `S=C(N/N=C\C(=N/NC(=S)N1CCCCC1)c1ccccc1)N1CCCCC1`, the GI50 was inactive: 1.9 µM.

For `O=c1[nH]c2nc3ccccc3c(=O)n2nc1Cc1ccccc1`, the GI50 was inactive: > 100 µM.

Turning to `CC1CN(CCO)CC(C)O1` (stereo not drawn), the GI50 was inactive: > 100 µM. As to `Cc1ccc(Oc2ccc([N+](=O)[O-])cc2[N+](=O)[O-])c(C)c1`, the GI50 is inactive: 44.2 µM. To `CN(C)/N=N/c1nc2c(c(=O)n(C)c(=O)n2C)n1C` belongs inactive: > 100 µM; to `Clc1ncnc2c1nc(C#Cc1ccccc1)n2C1CCCCO1` (stereo not drawn), inactive: 1.67 µM; to `O=C(Cc1ccccc1)NNc1nc(NNC(=O)c2ccncc2)nc(Nc2ccc(Cl)cc2)n1`, inactive: > 10 µM. As for `O=C(NCCCN1CCN(CCCNC(=O)c2cnc3ccccc3n2)CC1)c1cnc2ccccc2n1`, the GI50 was inactive: > 100 µM. With `Nc1nc(NCc2ccccc2)cc(NCc2ccccc2)n1`, the GI50 is inactive: 6.14 µM. Regarding `CNc1ccccc1S(=O)(=O)c1ccccc1[N+](=O)[O-]`, the GI50 is inactive: > 100 µM. In the case of `N=c1ccn2c(n1)OC1C(OP(=O)(O)O)C(CO)OC12` (stereo not drawn), the GI50 was inactive: > 66.2 µM. `O=C1/C(=N/c2ccc(Nc3ccccc3)cc2)Oc2ccccc21`: the GI50 is inactive: 5.46 µM. `CSC1=N[C@H](c2ccccc2)CS1`: the GI50 is inactive: > 100 µM. For the compound `CC(=O)[C@@H](C)C(=O)N1C(=O)OC[C@@]12[C@@H]1CC[C@@H](C1)C2(C)C`, the GI50 was inactive: > 100 µM.

As for `CCOC(=O)/C=C/C(Br)=C(Br)/C=C/C(=O)OCC`, the GI50 was inactive: > 100 µM. In the case of `O=[N+]([O-])c1ccc(O)c(/C=N/c2nc(-c3ccccc3)cs2)c1`, the GI50 was inactive: 19.8 µM. Then `CSc1nnc(SCc2nn3c(=O)cc(C)nc3s2)s1`, with inactive: > 100 µM; and `CCCCCCC(C)CCCCCCCCCCC(=O)O` (stereo not drawn), with inactive: > 100 µM; and `COc1cc2c(cc1O)[C@]1(Cc3ccc4c(c3C1=O)OCO4)N(C)CC2`, with inactive: > 100 µM. As to `COc1c(Br)cc(/C=C(\C#N)c2cccnc2)cc1Br`, the GI50 is inactive: > 100 µM. `C#CCOCn1cnc2c(Cl)ncnc21`: the GI50 was inactive: > 100 µM.

Take `CC(C)S(=O)(=O)ON1C(=O)c2ccc([N+](=O)[O-])cc2C1=O`: the GI50 is inactive: > 100 µM. Regarding `CC(C)(C)c1ccc(OC(=O)Nc2ccc(O)c(C(=O)O)c2)cc1`, the GI50 was inactive: > 100 µM.

As for `O=NNc1cnc(O)nc1O`, the GI50 is inactive: > 100 µM.

Regarding `CN(C)Cc1cc(C(=O)/C=C/c2ccccc2)cc(CN(C)C)c1O`, the GI50 is inactive: 31.6 µM.

The record behind these values is ChEMBL document CHEMBL1201862, “PubChem BioAssay data set” (2004).
